The values that follow come from the supplement of paper PMC9446081.

Among all 39,000 compounds or so, about 220 (0.56%) showed activity. The list shows a part of the results.
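Note: static incubation at 37 °C against the wild-type strain, values averaged over two biological replicates.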

In this experiment the test system is Escherichia coli K-12 BW25113. The experiment is described as follows: relative growth (OD600 normalised to plate interquartile mean) (fraction); higher = less growth inhibition, active = 0.2 or less. Conditions: 50 µM; LB; incubation time: overnight (16-24 h).
Regarding `CC(CCC(=O)[O-])C1CCC2C3C(=O)CC4CC(=O)CCC4(C)C3CC(=O)C12C.[Na+]` (stereo unspecified), the relative growth was inactive: 1.
Take `Cc1cc2nc(C(=O)N[C@H]3CCN(C)C3)cc(-c3ccccc3Cl)c2c(C)c1-c1ccc(CO)cc1`: the relative growth was inactive: 0.963.
On to `O=C1O[C@H](c2ccccc2)[C@H](c2ccccc2)N2[C@H]1[C@@H](C(=O)Nc1nc3ccccc3s1)[C@]1(C(=O)Nc3ccc(C#CC4(O)CCCCCC4)cc31)[C@H]2c1ccccc1OCCO`, for which the relative growth is inactive: 1.03.
In the case of `O=C(CN1CCOCC1)NCC[C@@H]1CC[C@@H](NS(=O)(=O)c2ccc(Cl)cc2)[C@H](CO)O1` it was inactive: 1.
The figure for `CNC(=O)c1ccc(Nc2ncc(C(F)(F)F)c(NCc3nccnc3N(C)S(C)(=O)=O)n2)cc1` is inactive: 1.06.
The figure for `Cc1noc(C)c1NC(=O)N(C)C[C@H]1Oc2ccc(NC(=O)CCN3CCOCC3)cc2CC(=O)N([C@@H](C)CO)C[C@H]1C` is inactive: 0.971; for `COc1ccccc1CNC(=O)C[C@@H]1CC[C@@H]2[C@H](COC[C@@H](O)CN2C(=O)Nc2ccc(F)cc2)O1` it is inactive: 0.965.
`COc1ccc(S(=O)(=O)Nc2cccc3c2O[C@H](CN(C)S(C)(=O)=O)[C@H](C)CN([C@H](C)CO)C3=O)cc1`: the relative growth is inactive: 1.
The figure for `COc1ccc(NC(=O)N(C)C[C@@H]2OCCCC[C@@H](C)Oc3ccc(NC(=O)Nc4ccc(C(F)(F)F)cc4)cc3C(=O)N([C@@H](C)CO)C[C@@H]2C)cc1` is inactive: 0.99.
On to `Cc1cc(C)c(S(=O)(=O)NCCO)cc1C`, for which the relative growth was inactive: 0.995.
The figure for `CCS(=O)(=O)N1C[C@]2(CCN(CC2)Cc2cccc(c2)OC)c2c(n(c3cc(ccc23)OC)C)[C@H]1CO` is inactive: 1; for `C[C@@H]1CN([C@H](C)CO)C(=O)c2cccc(N(C)C)c2O[C@H]1CN(C)S(=O)(=O)c1ccc(Cl)cc1` it is inactive: 1.01; for `C[C@@H]1CN([C@H](C)CO)C(=O)Cc2cc(NS(=O)(=O)c3ccccc3)ccc2O[C@H]1CN(C)Cc1ccncc1` it is inactive: 1.01.
The figure for `C=CCOC[C@H]1NCCc2c1nnn2CC` is inactive: 0.957.
For the compound `COc1ccc(NC(=O)Nc2ccc3c(c2)C(=O)N([C@H](C)CO)C[C@@H](C)[C@H](CN(C)C(=O)Nc2ccc(F)cc2)OCCCC[C@@H](C)O3)cc1`, the relative growth is inactive: 1.02.
In the case of `COc1ccc(NC(=O)N(C)C[C@@H]2OCCCC[C@@H](C)Oc3ccc(NS(=O)(=O)c4ccc(C)cc4)cc3C(=O)N([C@@H](C)CO)C[C@@H]2C)cc1` it was inactive: 1.03.
With `Cc1ccc(S[C@]2(C(=O)NCCCN(C)C)CC(=O)N(Cc3ccccc3C(F)(F)F)[C@@H]2c2ccc(CO)cc2)cc1`, the relative growth is inactive: 1.03.
Turning to `Cc1noc(C)c1NC(=O)Nc1ccc2c(c1)C(=O)N([C@@H](C)CO)C[C@H](C)[C@@H](CN(C)Cc1ccc(Cl)c(Cl)c1)OCCCC[C@H](C)O2`, the relative growth is inactive: 0.978.
For the compound `COc1cccc(S(=O)(=O)Nc2ccc3c(c2)[C@@H]2C[C@H](CC(=O)N4CCCCC4)O[C@@H](CO)[C@@H]2O3)c1`, the relative growth is inactive: 1.
With `Cc1ccc(S(=O)(=O)Nc2ccc3c(c2)C(=O)N([C@H](C)CO)C[C@@H](C)[C@@H](CN(C)Cc2ccccc2)OCCCC[C@@H](C)O3)cc1`, the relative growth is inactive: 0.999.
The figure for `C[C@H](CO)N1C[C@H](C)[C@@H](CN(C)C(=O)Nc2ccccc2)OCCCC[C@H](C)Oc2ccc(NC(=O)Cc3ccccc3)cc2C1=O` is inactive: 1; for `C[C@@H]1CCCCO[C@H](CN(C)Cc2ccc3c(c2)OCO3)[C@@H](C)CN([C@@H](C)CO)C(=O)c2cc(NC(=O)NC3CCCCC3)ccc2O1` it is inactive: 1; for `Cc1ccc(S(=O)(=O)Nc2ccc3c(c2)C(=O)N([C@H](C)CO)C[C@@H](C)[C@@H](CN(C)C(=O)c2ccccc2)OCCCC[C@@H](C)O3)cc1` it is inactive: 0.998.
In the case of `C[C@@H]1CCCCO[C@@H](CN(C)C(=O)Nc2ccc(C(F)(F)F)cc2)[C@H](C)CN([C@H](C)CO)C(=O)c2cc(NC(=O)Cc3ccccc3)ccc2O1` it was inactive: 1.01; in that of `C[C@H]1CN([C@@H](C)CO)C(=O)c2cccc(NS(C)(=O)=O)c2O[C@@H]1CN(C)Cc1ccc(C(=O)O)cc1`, inactive: 0.978.
In the case of `CC(=O)O[C@@H]1CC[C@@]2(C)[C@@H](CC[C@]3(C)[C@@H]2C(=O)C=C2[C@@H]4[C@@H](C)[C@H](C)CC[C@]4(C)CC[C@]23C)[C@@]1(C)C(=O)O` it was inactive: 0.825.
Regarding `COc1ccc(-c2cnc3c(c2)C(=O)N([C@H](C)CO)C[C@H](C)[C@@H](CN(C)C(=O)Cc2ccccn2)O3)cc1`, the relative growth was inactive: 0.974.
`COc1ccc(S(=O)(=O)Nc2ccc3c(c2)C(=O)N([C@H](C)CO)C[C@@H](C)[C@@H](CN(C)Cc2ccc(Oc4ccccc4)cc2)O3)cc1`: the relative growth is inactive: 0.982.
The figure for `COc1ccc(NC(=O)Nc2ccc3c(c2)C(=O)N([C@H](C)CO)C[C@@H](C)[C@H](CN(C)C(=O)Nc2ccc(C(F)(F)F)cc2)O3)cc1` is inactive: 0.959; for `COc1cccc(C#Cc2ccc3c(c2)O[C@H](CN(C)C(=O)c2ccccn2)[C@H](C)CN([C@H](C)CO)S3(=O)=O)c1` it is inactive: 1.05; for `Cc1noc(C)c1S(=O)(=O)Nc1ccc2c(c1)CC(=O)N([C@@H](C)CO)C[C@H](C)[C@H](CN(C)S(C)(=O)=O)O2` it is inactive: 0.991.
In the case of `Nc1ccccc1OCc1ccccc1` it was inactive: 0.955; in that of `C[C@@H]1CN([C@@H](C)CO)C(=O)c2cc(NC(=O)C3CCCCC3)ccc2O[C@@H](C)CCCCO[C@@H]1CN(C)C(=O)NC1CCCCC1`, inactive: 0.977; in that of `CC(C)CC#Cc1ccc2c(c1)O[C@H](CN(C)S(=O)(=O)c1ccc(F)cc1)[C@H](C)CN([C@@H](C)CO)S2(=O)=O`, inactive: 1.04.
As to `C[C@H]1CN([C@@H](C)CO)C(=O)c2cc(NC(=O)CCC(F)(F)F)ccc2O[C@H]1CN(C)Cc1ccc(C(=O)Nc2ccccc2N)cc1`, the relative growth is inactive: 0.998.
The figure for `C[C@@H]1CN([C@@H](C)CO)C(=O)c2cc(NC(=O)CCC(F)(F)F)ccc2O[C@@H](C)CCCCO[C@@H]1CN(C)C(=O)c1ccccc1` is inactive: 1.02.
